Experimental data: PubChem BioAssay AID485313 (National Center for Advancing Translational Sciences (NCATS), 2010)
Hit rate of the full screen: of about 320,000 compounds, about 7,600 (2.4%) were called active. The shares of active, inactive and inconclusive entries below differ from those in the screen. Calls come from the whole dose curve; as a rule, active = well fitted activation curve with a large enough effect; inconclusive = small, poorly fitted or top-dose-only effect; inactive = no such curve, though single readings can be large or run the other way. Potencies of inconclusive entries are left out as doubtful fits.

Experiment: qHTS Assay for NPC1 Promoter Activators; note: nearly all actives have a fitted effect of over 60% in size
Conditions: Huh7 NPC1 promoter luciferase reporter, 24 h; series mostly up to 9.22 µM
Source text: NIH Chemical Genomics Center [NCGC] NIH Molecular Libraries Probe Production centers Network [MLPCN] MLPCN Grant: MH089375-01A1 Assay Submitter (PI): Yiannis A. Ioannou NCGC Assay Overview: Niemann Pick Type C (NPC) is a rare neurodegenerative lipidosis that is characterized by lipid storage in the endosomal/lysosomal system. Treatment modalities for this devastating disease are currently non-existent due to the severe obstacles associated with accessing the central nervous system with proteins or genes. The majority of mutations causing NPC disease are missense mutations that are distributed throughout the length of the NPC1 protein, with the most prevalent being the I1061T allele. Although NPC1 mutant proteins may be functional, they are typically trapped in the ER due to misfolding. […] We have developed and optimized a cell based luciferase reporter assay in 1536 well format for the identification of up-regulators of the mutant NPC1 promoter.
The NPC1 promoter is cloned in front of the luciferase reporter gene, therefore NPC promoter activation results in luciferase expression. Frozen stock of the NPC1 promoter transfected Huh7 cells were obtained from the laboratory of Dr. Yiannis Ioannou (The Mount Sinai School of Medicine, New York, NY). […] 7.#Read using the luminescence protocol on the ViewLux plate reader (Perkin Elmer).
Potency is the fitted concentration of half-maximal effect; tags give direction and shape of the fitted curve.

| SMILES | Potency |
| --- | --- |
| COc1ccc(C(=O)Nc2ccc(/C(C)=N/NC(=O)c3ccncc3)cc2)cc1 | inconclusive [activator, partial curve] |
